The values below come from the supplement of paper PMC11417369.

± gives the standard deviation of the averaged measurements. This is one part of the list.

The assay relates to PfAP2-EXP AP2 domain (GST-tagged). Briefly: gcPBM binding intensity (ln(normalized median fluorescence intensity)); higher = stronger DNA binding. The essentials:
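An Agilent 4 × 180k array of primer-extended double-stranded 36-bp intergenic genomic probes, with negative controls, was incubated for 1 h with GST-tagged P. falciparum DNA-binding domains expressed in E. coli. Alexa488 anti-GST antibody detected bound protein, scanned at 488 nm. Binding intensity is the highest Masliner-normalised natural-log median intensity across replicate spots of either probe orientation.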
For the sequence “CTAACAACCAAACGCACACACACAAAAAAAAAAATA [CACACA_site400]”, the “gcPBM binding intensity (ln)” value was 8.48 ± 0.42.
To “TTTGAAATGATATATAAACACACATATATATATATA [CACACA_site9170]” belongs 10.3 ± 0.4; to “TATTAAAAGGTGAGTACACACATATATGCGTATATA [CACACA_site2102]”, 8.68 ± 0.45.
In the case of “AACAACTATTAATTTACACACATGTATATATCTTAC [CACACA_site7459]”, the “gcPBM binding intensity (ln)” value turned out to be 8.71 ± 0.47.
On to “ATATTGAATTCCAACACATGCAAAACTTTCGGTTTT [TGCATGCA_site485]”, for which the “gcPBM binding intensity (ln)” value turned out to be 8.8 ± 0.38.
Regarding “ATATATATATATAATAGTACATATATTTTGAAAGAT [XGTACX_site5800]”, the “gcPBM binding intensity (ln)” value is 9.75 ± 0.27.
Turning to “TATGTGTGAAAAAAATGTACATATATATAAATTATA [XGTACX_site7202]”, the “gcPBM binding intensity (ln)” value was 8.78 ± 0.39.
To “AACTGTAAAAAATATAAACACACATAGAAATATATA [CACACA_site8002]” belongs 8.82 ± 0.29; to “AAAGAAATGAAATATACACACATACATATATACATA [CACACA_site9335]”, 8.42 ± 0.45.
Turning to “GTTCTGTAAATACGTGCACACACAAATCACAAATGT [CACACA_site7999]”, the “gcPBM binding intensity (ln)” value was 9.12 ± 0.028.
With “AATTAAAAAAGTAATTAACACACAATAATGTAATGC [CACACA_site9388]”, the “gcPBM binding intensity (ln)” value was 8.6 ± 0.34.
Then “TTTTTTTTCTTTTTTTGTACATAATAATATATAAAT [XGTACX_site6778]”, with 8.36 ± 0.45; and “GATATATTTTATATATGTACATACAATGGTAAATAT [XGTACX_site2759]”, with 8.66 ± 0.42; and “AAAAATGAAAAATGAAAAATGAAAAATGAAAAATAA [CACACA_negctrl_site695]”, with 8.73 ± 0.37.
In the case of “TATTCTTACAAAAGTAGTACAATCATTCATATTTTT [XGTACX_site631]”, the “gcPBM binding intensity (ln)” value was found to be 8.54 ± 0.34.
Then TATATATATATAATTGTGCACATAATTTTAAACCAA, with 10.1 ± 0.22.
As for “TAGTTTCAAGTAGGACGTACATATAAAAGGATTTTT [XGTACX_site7136]”, the “gcPBM binding intensity (ln)” value was 8.71 ± 0.36.
Then “ATATATCAAGGGAGTGAATGTTATGCATATGAATAT [TGCATGCA_negctrl_site573]”, with 8.71 ± 0.42; and “AATAAATTAAATAAAAATGTTTAACATAAAATATGA [GTGCAC_negctrl_site373]”, with 8.36 ± 0.35; and “GGATATTATATAAAGTGTACAAGACAAATATATACA [XGTACX_site8173]”, with 8.66 ± 0.33.
As to “AAATTAACAAACTGTAGTACTAACAATATATACAAA [XGTACX_site1772]”, the “gcPBM binding intensity (ln)” value came out at 8.79 ± 0.45.
For “ATTATAATTATCAAGGTGCGTGTATTATAATAAATA [GTGCAC_site9917]”, the “gcPBM binding intensity (ln)” value was found to be 8.69 ± 0.26.
As to “TAATATAATAATAATTGTACTTTTCATAGTGTAATT [XGTACX_site8152]”, the “gcPBM binding intensity (ln)” value came out at 7.95 ± 0.27.
With “AAAAAAAAAAAACACACACACAAAATAAACAAACAA [CACACA_site2721]”, the “gcPBM binding intensity (ln)” value is 8.6 ± 0.47.
Consider “AAGAAAAAGACTTCATGAAAAAGAATTTTTTTAATT [TGCATGCA_negctrl_site473]”, for which the “gcPBM binding intensity (ln)” value is 8.06 ± 0.57.
In the case of AATTTTCCATAGATTGTGCACAAATTTTTATTTTGT, the “gcPBM binding intensity (ln)” value was found to be 8.84 ± 0.26.
Regarding “TTATAATCAATGAATACACACATATATTTAATTAAT [CACACA_site3613]”, the “gcPBM binding intensity (ln)” value turned out to be 8.21 ± 0.4.
On to “TAATATTATTTTTCAGTGCAATATAACCTTAGAATT [GTGCAC_site9417]”, for which the “gcPBM binding intensity (ln)” value turned out to be 8.38 ± 0.32.
To “ATATATTTTTTTTTTATTTTATTATTATAATTTATC [XGTACX_negctrl_site16]” belongs 8.32 ± 0.43; to AAACAAAACAACTAAGTGCATAAAAATAAAATAAAT, 8.96 ± 0.32; to “ATTTTATTTTTTTGAAGTACGAATTCCGAGAAGAAA [XGTACX_site43]”, 8.65 ± 0.45.
As for “TATAGTTCTTCTATTTGTACATATATTATTATTTAA [XGTACX_site895]”, the “gcPBM binding intensity (ln)” value amounted to 8.57 ± 0.28.
Turning to “TATTCAAAAATATAAACAATGAAACAGTATAATATG [CACACA_negctrl_site1482]”, the “gcPBM binding intensity (ln)” value amounted to 8.59 ± 0.47.
As for “AATGTGCACACGCGTACACACAAAAAAAGAAAAAAA [CACACA_site7031]”, the “gcPBM binding intensity (ln)” value amounted to 8.57 ± 0.42.
As to “TATTATTTGAGTAGTTGTACTCATTAATATATAAAA [XGTACX_site3468]”, the “gcPBM binding intensity (ln)” value came to 8.11 ± 0.32.
Consider “TATTAATTTCACCTTTCACATATGGAAAAAAAAAAA [CACACA_negctrl_site1243]”, for which the “gcPBM binding intensity (ln)” value was found to be 8.71 ± 0.61.
“CAAAATATTTATATCACACATATAAATAAAAATAAA [CACACA_site6028]”: the “gcPBM binding intensity (ln)” value worked out at 8.55 ± 0.42.
Regarding “ATTAACATTTTCGTATGTACATATATAATATATGTT [XGTACX_site7184]”, the “gcPBM binding intensity (ln)” value came out at 8.8 ± 0.4.
In the case of “TTTCCAAATACAACTACACACAAACAAAAATTATAT [CACACA_site4641]”, the “gcPBM binding intensity (ln)” value is 8.74 ± 0.63.
To “AATAAAAATAAAAATTGTACACTTTTTTAATATTTA [XGTACX_site892]” belongs 8.11 ± 0.25; to “ATGTTTATTTATTTATGTACTTATATATTTATATAT [XGTACX_site7924]”, 8.78 ± 0.34.
Consider “TGTATATATTATATTTGTACATATAAAACTATATGT [XGTACX_site4782]”, for which the “gcPBM binding intensity (ln)” value was found to be 8.43 ± 0.26.
For “TATCTCATAGTATACACACACACACGCGCACATATA [CACACA_site6917]”, the “gcPBM binding intensity (ln)” value worked out at 9.01 ± 0.46.
Take “TTTCGAAAAACAACAAGAAAAAAAAAAAAAAAAAAA [XGTACX_negctrl_site449]”: the “gcPBM binding intensity (ln)” value is 8.01 ± 0.49.
